Test results published in the supplement of paper PMC3334620.
Over roughly 33,000 sequences, “E-score (-0.5 to 0.5)” has its median near -0.056; the highest 2% begin near 0.38. Some of the results follow.

Target: Stb4 (UniProt P50104)
Test: PBM E-score (8-mer binding enrichment) (E-score (-0.5 to 0.5)); higher = stronger / more preferred TF binding; most listed sequences are background and not binding sites
Settings: protein concentration: 200 nM; construct: GST-DNA-binding domain
In short: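 E-scores (a modified Wilcoxon-Mann-Whitney statistic) were assigned by the Universal PBM Analysis Suite to every ungapped eight-base word pooled with its reverse complement. The input came from universal all-10-mer Agilent arrays made double-stranded by primer extension and probed with GST-tagged yeast transcription factors at about 100-200 nM. Fluorescent anti-GST detected bound protein, and masliner normalised the scans.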

Sequence	PBM E-score
CAGTCCCC	-0.362
ATGGGGGC	-0.301
CACCAAGC	-0.0602
AGAGAGCG	-0.0993
ACTAGACG	-0.169
CACAAATG	-0.269
CAACGGAA	0.328
GTACGGCA	0.103
GCGGACCC	0.14
ACCGGCAT	0.293
CCAGTGAC	-0.303
ATATGAAC	-0.0878
GTCACGGA	0.323
CAGATTGG	-0.217
CAACAATA	-0.056
ACCCCCCT	-0.168
TACTGTCA	-0.143
AGGATTCA	-0.171
CTACCGAA	0.365
CTCCAAGA	-0.311
CTGGAGTC	-0.182
CGCCTAAC	-0.00571
GCTAGTGA	-0.15
CGGCGCAG	0.0459

Sequence	PBM E-score
AGTACCAC	-0.139
ACCCTCAT	-0.161
CCGGTTAG	0.287
ATACTCCG	0.365
AACGAGTG	-0.157
TAACAGGA	-0.156
CGAAATGC	0.124
GCCGATAC	0.328
CACGCATC	-0.0761
GTGCGACA	-0.0629
AGGAATGA	-0.0401
ACGCAAGT	-0.16
AGTTAGTC	0.00736
CGCGGGAC	0.208
CATGGCAC	0.00387
CGTGGGCA	-0.226
CGTATCGA	-0.148
AACATTGA	-0.171
CCACTCGA	-0.236
CGTGAGAA	0.0572
CACTTCCG	0.397
ACTTCCCG	0.354
AGTTAGGA	-0.167
GGCTAGTA	0.2

Sequence	PBM E-score
ACCCTCGT	-0.0252
AATTGCGC	0.157
CATGGTAA	-0.14
CTTTCCAC	0.0376
ACGTATAC	-0.0279
GTTGGACA	0.0335
ATAGAAAG	-0.0667
ATACCGCG	0.0592
ATTTATTG	-0.197
GAGCGCTC	-0.0362
TACTATGA	-0.0642
AGTCGGAC	0.176
CTGCCGCC	0.127
GTTGCCTA	-0.067
GACCATCA	-0.0356
CAAGTTGA	-0.11
AAAGTTAA	-0.108
ACTTATAC	0.079
AAGTAAGT	-0.0616
AACGGCAG	0.0735
GATCTCGC	-0.101
CAATTCTC	-0.0291
ATTGTGTC	-0.151
AACGTTCC	0.21

Sequence	PBM E-score
GGAGTTTA	0.0943
CTTGAGAA	-0.366
ATTTCGTA	-0.191
ATACCAAA	-0.0172
AACTTCTC	0.0267
CCGATTTC	0.274
CCCCGCCC	0.337
ACAGATAG	-0.112
ATGCACTC	-0.228
GCTGGGTA	-0.139
AACAGTAT	-0.129
CCATTGAG	-0.222
ACTTATGG	0.0497
TAACGGTA	-0.0399
TACTTTGA	-0.26
GGGTCCGA	0.344
CCTGATAA	-0.282
CCCCTAAA	-0.201
GGATCGCA	0.109
CATGGAGA	-0.204
CCAGGAGA	-0.217
CAGGCTGC	-0.25
